This is an account of results in the RNAGym collection of RNA variant scans (doi:10.1101/gad.245936.114).

To fix the notation:
B1: tRNA (parent)
chain: CUCUCGGUAGCCAAGUUGGUUUAAGGCGCAAGACUUUAAUUUAUCACUACGAAAUCUUGAGAUCGGGCGUUCGACUCGCCCCCGGGAGAUUUUUUCCUCGAGCAA

Variants at the background level are over-represented here.

Variants of B1 are the subject of the series. The series can be described thus: nonsense suppression (GFP-seq) (ratio to wild type); higher = more function; SUP4oc tRNA, yeast GFP reporter sort-seq. Put shortly:
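Nonsense suppression (GFPSEQ) is the median GFP/RFP ratio of each sorting bin, weighted by the variant's estimated share of cells in that bin and expressed relative to the unmutated parent tRNA. Yeast strains carried genome-integrated variants of an ochre-suppressor tRNA from a library with ~3% random mutations, plus a galactose-driven GFP ochre reporter and RFP, and were grown in raffinose/galactose medium containing 80 mg/L adenine. Cells were sorted into GFP/RFP bins, each bin was Illumina-sequenced (phred ≥30), and variants were kept only with ≥100 reads and ≥30 cells.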
As to A13U G25C G32A A62C, the nonsense suppression was at most 0.026.

On to G7U C27U U35A A74C, for which the nonsense suppression is at most 0.026.

Consider A31C U35A C81A, for which the nonsense suppression is at most 0.026.

As for G7A A31G U55A, the nonsense suppression was at most 0.026.

For the variant G28A U55A, the nonsense suppression is at most 0.026.

As to A62C C80A, the nonsense suppression is at most 0.026.

For U17C A30G A60G, the nonsense suppression is at most 0.026.

Take G6C G19U: the nonsense suppression was at most 0.026.

Consider A24U U70A, for which the nonsense suppression was at most 0.026.

Consider U16C A33U, for which the nonsense suppression was at most 0.026.

G65C G78A: the nonsense suppression was at most 0.026.

Turning to G25C G61A U63C, the nonsense suppression was at most 0.026.

For the variant G7U A30C U71C A74G, the nonsense suppression was at most 0.026.

For C3U A23G A31G C56G C72A, the nonsense suppression was at most 0.026.

For the variant A60C U70C U71G, the nonsense suppression is at most 0.026.

Consider U20C U22G G59U, for which the nonsense suppression was at most 0.026.

On to G7U G32A A60C A74G, for which the nonsense suppression was at most 0.026.

As to A14G A89U, the nonsense suppression is at most 0.026.

With G15A C64G G67U G84U A87U, the nonsense suppression was at most 0.026.

With C1A A14C U35G G65C C68G G73A, the nonsense suppression was at most 0.026.

C1U A14C C56A: the nonsense suppression is at most 0.026.

As for C5U U21G, the nonsense suppression is at most 0.026.

Regarding U20G U58G A62C, the nonsense suppression was at most 0.026.

On to U8G U57C, for which the nonsense suppression is at most 0.026.

A33C U58A: the nonsense suppression is at most 0.026.

For the variant U8G A13U C27U C56U A62C, the nonsense suppression is at most 0.026.

As to C34U G78C, the nonsense suppression was at most 0.026.

Take G7A G25C A60C: the nonsense suppression was at most 0.026.

Take A9G G86C: the nonsense suppression was at most 0.026.

Turning to C1U C11G C79U, the nonsense suppression was at most 0.026.

Regarding U4C U70A C80A, the nonsense suppression is at most 0.026.

U17G G67A G73A: the nonsense suppression was at most 0.026.

For U21G U22C C27U A31G A33G, the nonsense suppression is at most 0.026.

Turning to U17A G19U U22A G28C A54G, the nonsense suppression is at most 0.026.

For C27G G61U, the nonsense suppression was at most 0.026.

G78C C82G: the nonsense suppression was at most 0.026.

Take A31G G86A: the nonsense suppression is at most 0.026.

On to A23C A24U G61C, for which the nonsense suppression is at most 0.026.

With C11A G19U U20C U55G, the nonsense suppression was at most 0.026.

In the case of G26U A30G U63G G65C, the nonsense suppression is at most 0.026.

For the variant G6U U22C C56G, the nonsense suppression is at most 0.026.

Take U2G C77A: the nonsense suppression was at most 0.026.

For the variant U2C A33C, the nonsense suppression was at most 0.026.

G10U U57A G67A C77G: the nonsense suppression was at most 0.026.

Regarding U21A G26C C64A, the nonsense suppression was at most 0.026.

For the variant U16C U57A, the nonsense suppression is at most 0.026.

On to A9C A30G A60C, for which the nonsense suppression is at most 0.026.

For G7C U20A A54C G69C, the nonsense suppression is at most 0.026.

For U2G G6U G85U, the nonsense suppression is at most 0.026.

Consider C83A G84C, for which the nonsense suppression is at most 0.026.

Turning to G18C U20C C27U C34U, the nonsense suppression is at most 0.026.

Regarding G7U G32C, the nonsense suppression was at most 0.026.

As to G6C C12G C72G C75U G85C, the nonsense suppression was at most 0.026.

Regarding A30G U55C G67A G86U, the nonsense suppression is at most 0.026.

As for G65A G78U, the nonsense suppression is at most 0.026.

In the case of G61C G65A C68U, the nonsense suppression is at most 0.026.

G10C U35A C79A: the nonsense suppression is at most 0.026.

For the variant C5U A54C, the nonsense suppression is at most 0.026.

For the variant G28A G32C A74C, the nonsense suppression was at most 0.026.

On to C29A C34U U55A G85C, for which the nonsense suppression was at most 0.026.

Turning to A54U G84C, the nonsense suppression is at most 0.026.

Turning to C11U A33C G65A G85U, the nonsense suppression is at most 0.026.

Take C3G U8A C11G U22G C27G C56U C82A: the nonsense suppression was at most 0.026.

A54G A87U: the nonsense suppression is at most 0.026.

As to C11A U76G A87U, the nonsense suppression was at most 0.026.

On to A13G C80U, for which the nonsense suppression turned out to be 0.0419.

For the variant A33U G86A, the nonsense suppression was at most 0.026.

In the case of A62U G85C, the nonsense suppression was at most 0.026.

Turning to G6U G67A G86C, the nonsense suppression is at most 0.026.

Take U21G G59A: the nonsense suppression is at most 0.026.

Consider A23G C79A G85A, for which the nonsense suppression is at most 0.026.

On to C5G C29U C56A U63C, for which the nonsense suppression was at most 0.026.

For G67U G88C, the nonsense suppression is at most 0.026.

Consider A23G A54U U71C C79U, for which the nonsense suppression is at most 0.026.

With U4A A30U A33U U55A C56G, the nonsense suppression was at most 0.026.

Take C11U C29U A31G: the nonsense suppression is at most 0.026.

Take U20G G25A G61U: the nonsense suppression was at most 0.026.

For the variant U2A C29G, the nonsense suppression is at most 0.026.

In the case of C56G C83G G84C, the nonsense suppression is at most 0.026.

Consider C11G G15U C34A, for which the nonsense suppression was at most 0.026.

C12U G88U: the nonsense suppression came out at 0.0717.

As to A13G G26A, the nonsense suppression is at most 0.026.

As to G10U C64G, the nonsense suppression is at most 0.026.

Take G6U C75A: the nonsense suppression was at most 0.026.

Take C34U A87U G88A: the nonsense suppression is at most 0.026.

Take G6U U55A G69U A87G: the nonsense suppression is at most 0.026.

Turning to C12G A89U, the nonsense suppression was at most 0.026.

For U2G C11U U21G, the nonsense suppression is at most 0.026.

U2C C56A: the nonsense suppression is at most 0.026.

U8A C34A C79U G85A: the nonsense suppression is at most 0.026.

As for C64G C72U G73U, the nonsense suppression is at most 0.026.

With U2C G15A A54U, the nonsense suppression was at most 0.026.

As for U4G C81U, the nonsense suppression came to 0.161.

As for C1U C11U G61A U63A U76G, the nonsense suppression is at most 0.026.

Take U2G C34U U76G G85C: the nonsense suppression was at most 0.026.

In the case of A9C C12U C82A, the nonsense suppression was at most 0.026.

In the case of C1A C27A G84C, the nonsense suppression was at most 0.026.

Take C3U G66C: the nonsense suppression turned out to be 0.0288.

With G65C C80U, the nonsense suppression was at most 0.026.

With G61C G69A A87U, the nonsense suppression is at most 0.026.

As for U8C C81G, the nonsense suppression is at most 0.026.

Consider U2G C79U, for which the nonsense suppression is at most 0.026.

Consider G26U G28U G61U G65A G67U G69C, for which the nonsense suppression is at most 0.026.

Turning to A13G G88A, the nonsense suppression was at most 0.026.

A24C G32U A33C U35G G86A: the nonsense suppression is at most 0.026.

On to U8C G28A A31G C81G, for which the nonsense suppression was at most 0.026.

Turning to G15C U16C, the nonsense suppression was at most 0.026.

Take A23C A30G A31G G59A G84A: the nonsense suppression is at most 0.026.

As to G32U A62G U63A, the nonsense suppression was at most 0.026.

With U55A C77G A87U, the nonsense suppression is at most 0.026.

Regarding U4A C5G G59A, the nonsense suppression is at most 0.026.

For A60G G69U, the nonsense suppression is at most 0.026.

With U20A A23U, the nonsense suppression was at most 0.026.

On to U35A G78C, for which the nonsense suppression was at most 0.026.

With G26A G86U, the nonsense suppression is at most 0.026.

Consider U21C A62G, for which the nonsense suppression is 0.0282.

With G26A G61U G86C, the nonsense suppression was at most 0.026.

As to G25C C75A C83A A87G, the nonsense suppression is at most 0.026.

G15A C77G: the nonsense suppression is at most 0.026.

For G26U C29U A74G, the nonsense suppression was at most 0.026.

Turning to C64U A89G, the nonsense suppression is at most 0.026.

G18C C29U G65C G84A: the nonsense suppression was at most 0.026.

For the variant G6C G69A C83U, the nonsense suppression was at most 0.026.

As for G19A C77U, the nonsense suppression is at most 0.026.

Turning to C3U U8G, the nonsense suppression was at most 0.026.

On to C3U C11G A14G U20A, for which the nonsense suppression is at most 0.026.

For C1A U17G C27G U58C G61C U76C, the nonsense suppression was at most 0.026.

With U8C U70A, the nonsense suppression is at most 0.026.

For U2C U4C A13G, the nonsense suppression is 0.205.

Take A33G C77U G78A: the nonsense suppression is at most 0.026.

In the case of G6U A87C G88C, the nonsense suppression is at most 0.026.

Regarding A23G C34G, the nonsense suppression was at most 0.026.

For the variant A13C G59C, the nonsense suppression was at most 0.026.

Consider C3A A14U, for which the nonsense suppression was at most 0.026.

Turning to C3G G6C U20A U35C U58C G61U U63C, the nonsense suppression is at most 0.026.

As to G10U U21C A74U, the nonsense suppression is at most 0.026.

As to U2G A13C G66U, the nonsense suppression was at most 0.026.

For the variant G19C G25A C79U, the nonsense suppression is at most 0.026.

Take A33U U76G: the nonsense suppression was at most 0.026.

On to C5A G7A U20G, for which the nonsense suppression was at most 0.026.

Regarding U55C C64G, the nonsense suppression was 0.0515.

As for A13G U22G U70G, the nonsense suppression was at most 0.026.

For the variant G32C G86A, the nonsense suppression was at most 0.026.

Regarding U2C G7U G26U C34A, the nonsense suppression is at most 0.026.

Take C64A G65C: the nonsense suppression is at most 0.026.

As for C68A C72U, the nonsense suppression was at most 0.026.

For A30G C75U, the nonsense suppression was 1.19.

As to U35C U63A A89C, the nonsense suppression was at most 0.026.

Turning to C1G G7U A33U G67C, the nonsense suppression is at most 0.026.

Take U8A G28U C29U A60U C68U C82G: the nonsense suppression was at most 0.026.

In the case of U20G A54G C77A, the nonsense suppression was at most 0.026.

U55G U57C U63A: the nonsense suppression was at most 0.026.

With C3A G69U, the nonsense suppression is at most 0.026.

Consider C34U G84C, for which the nonsense suppression is at most 0.026.

On to A60C G84C, for which the nonsense suppression came out at 0.0911.

As for C1G G32A A60C U70A, the nonsense suppression was at most 0.026.

With C5G A54U G66C G67U, the nonsense suppression is at most 0.026.

As for A30C C68U C82U, the nonsense suppression was at most 0.026.

On to C1A G7A C72G C80G, for which the nonsense suppression is at most 0.026.

On to A9G G18C C34G C56U, for which the nonsense suppression is at most 0.026.

In the case of C12A G66C, the nonsense suppression was at most 0.026.

Consider C3A A31C U35C G65C, for which the nonsense suppression was at most 0.026.

Take G10A A30C C82A: the nonsense suppression is at most 0.026.

Consider C5G U17G U63C G85C, for which the nonsense suppression was at most 0.026.

For the variant A14U G18U A23U C27G, the nonsense suppression was at most 0.026.

For the variant A54G C64G C75G, the nonsense suppression was at most 0.026.

In the case of G18A C29A C68A G78C, the nonsense suppression is at most 0.026.
